Results taken from PubChem BioAssay AID686979 (National Center for Advancing Translational Sciences (NCATS), 2013).
Screen size: about 420,000 compounds; about 50,000 (12%) were called active. Inconclusive means that the source gave no clear call. Such entries were picked first, then a sample of the others. Calls come from the whole dose curve; as a rule, active = well fitted inhibition curve with a large enough effect; inconclusive = small, poorly fitted or top-dose-only effect; inactive = flat fitted curve, though single readings scatter. Potencies of inconclusive entries are left out as doubtful fits.
% is set by controls: 0 for no effect and ±100 for the full control effect; potency is the fitted concentration of half-maximal effect; tags give direction and shape of the fitted curve.

Test: qHTS for Inhibitors of human tyrosyl-DNA phosphodiesterase 1 (TDP1): qHTS in cells in presence of CPT; note: nearly all actives have a fitted effect of over 55% in size
Conditions: chicken DT40 Tdp1-/-;hTDP1 cells + 20 nM CPT, ATP luminescence, 48 h; activity change, negative = growth inhibition: at 46.2 µM (top of the series)
Procedure, shortened: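 Chicken DT40 Tdp1-/- cells complemented with human TDP1, 400 cells/well, exposed to compounds plus 20 nM camptothecin for at least 48 h at 37 C; viability read as ATP content by CellTiter-Glo luminescence.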
For `COc1cccc2c(Nc3ccccc3C)cc(C)nc12`, the Potency was active: 18.4 µM.
For `N#CCSc1nnc(SCC#N)s1`, the “activity change, negative = growth inhibition” value was inactive: -2.88%.
With `Cc1cccc(CS(=O)(=O)Cc2ccc(C(=O)NCc3ccc(Cl)cc3)o2)c1` the Potency was active: 16.4 µM.
For `Cc1cc2ccc3ccccc3c2cc1CN(C)C`, the Potency was inconclusive [inhibitor, single point].
In the case of `CN(c1ccc(Cl)cc1)c1cc(=O)n(C)c2ccccc12`, the Potency is reported as active: 12.6 µM.
With `Cc1ccc2occ(/C=N/NC(=O)c3ccccc3C)c(=O)c2c1` the Potency was active: 16.4 µM.
With `CC1(C(=O)Nc2ccc3c(c2)OCCO3)CCN1Cc1ccccc1OC(F)F` (configuration not stated) the Potency was inconclusive [inhibitor, partial curve, poor fit].
For `Cc1nn2c(-c3cccc(NC(=O)CSc4nc5ccccc5o4)c3)nnc2c2ccccc12`, the Potency was active: 11.6 µM.
With `CCC(C(=O)NCCc1ccc(Cl)cc1)n1nc(C)c2c(C)n(-c3ccccc3)nc2c1=O` (configuration not stated) the Potency was inconclusive [inhibitor, single point].
For `COc1ccccc1C(=O)COC(=O)c1c(-c2ccccc2)noc1C`, the Potency was inconclusive [inhibitor, single point].
In the case of `Cc1cc(=O)[nH]c(N/N=C/c2c[nH]c3ccccc23)n1`, the Potency is reported as inconclusive [inhibitor, single point].
In the case of `Cc1ccc(C(=O)N/C(=C/c2ccc(N(C)C)cc2)C(=O)NCC2CCCO2)cc1` (configuration not stated), the “activity change, negative = growth inhibition” value is reported as inactive: 1.46%.
In the case of `O=C(CSc1nc2ccccc2o1)N1c2ccccc2Sc2ccccc21`, the Potency is reported as inconclusive [inhibitor, single point].
For `CCN(CC)c1nc2ccccc2c(N)c1-c1ccccc1`, the Potency was active: 13 µM.
In the case of `Cc1ccccc1OCC(=O)N/N=C/C=C/c1ccccc1`, the “activity change, negative = growth inhibition” value is reported as inactive: -20%.
With `O=C1CCN(CCc2ccccc2)CCN1[C@H](CSc1ccccc1)c1ccccc1` the Potency was active: 11.2 µM.
For `Fc1ccc(NC(=S)Nc2ccc(Cl)cc2Cl)cc1`, the Potency was inconclusive [inhibitor, single point].
In the case of `COc1ccc(S(=O)(=O)N2CCC(Nc3ccccc3Cl)CC2)cc1`, the “activity change, negative = growth inhibition” value is reported as inactive: -21.4%.
With `O=c1cc(NCc2ccccc2)nc2ccccn12` the Potency was inconclusive [inhibitor, single point].
In the case of `OCC1(CCc2ccccc2)CCN(Cc2cc(F)ccc2-n2cccn2)CC1`, the Potency is reported as inconclusive [inhibitor, single point].
With `COc1cccc(CSc2nc3n(n2)C(c2ccccc2C)C(C(=O)Nc2ccccc2OC)=C(C)N3)c1` (configuration not stated) the Potency was inconclusive [inhibitor, single point].
For `Cc1ccc(CNC(=O)c2cc3c(=O)n4ccccc4nc3n(CC3CCCO3)c2=N)cc1` (configuration not stated), the Potency was inconclusive [inhibitor, single point].
With `Fc1ccc(CSc2ccc(-c3ccco3)nn2)cc1` the Potency was inconclusive [inhibitor, partial curve].
For `CCOc1ccc2nc(N3CCCN(C(=O)Nc4ccccc4C)CC3)c(C#N)cc2c1`, the Potency was inconclusive [inhibitor, single point].
In the case of `CCOc1ccc(CN2C(=O)c3ccccc3Sc3ccc(C(=O)NCc4ccc(C)cc4)cc32)cc1`, the “activity change, negative = growth inhibition” value is reported as inactive: 7.75%.
For `COC(=O)c1ccc(NC(=O)CC2C(=O)N(c3cccc(OC)c3)C(=O)N2Cc2cccc(OC)c2)cc1` (configuration not stated), the Potency was inconclusive [inhibitor, single point].
For `Cc1ccc(Nc2nccc(N(C)c3ccc4c(C)n(C)nc4c3)n2)cc1S(N)(=O)=O`, the Potency was active: 10.6 µM.
For `Cc1cc(NC(c2cccnc2)c2ccc3cccnc3c2O)no1` (configuration not stated), the Potency was active: 3.26 µM.
With `N/C(=N\OC(=O)c1ccc(Cl)cc1Cl)c1ccccn1` the “activity change, negative = growth inhibition” value was inactive: -22.8%.
In the case of `c1ccc(Nc2nc(-c3ccccc3)c(-c3ccccc3)s2)cc1`, the Potency is reported as active: 28.2 µM.
In the case of `CC(C)(C)C(=O)N1CCN(c2ccc(NC(=O)c3ccc4c(c3)OCCO4)cc2)CC1`, the Potency is reported as inconclusive [inhibitor, full curve, poor fit].
For `Cc1ccc(C(=O)N(CCc2ccccc2)Cc2ccccc2)cc1S(=O)(=O)N1CCCCC1`, the Potency was inconclusive [inhibitor, single point].
For `O=C(NC1CCCCC1)C1CCC(=O)N(Cc2cccc(C(F)(F)F)c2)C1` (configuration not stated), the “activity change, negative = growth inhibition” value was inactive: -8.35%.
With `CCc1cc(C(=O)Cc2cnn(-c3ccccc3)c2)c(O)cc1O` the “activity change, negative = growth inhibition” value was inactive: -20.2%.
For `N/C(Cc1cccs1)=N\OC(=O)COc1ccccc1`, the “activity change, negative = growth inhibition” value was inactive: -10.2%.
With `COc1ccccc1C=NN1CCCCCC1` the Potency was inconclusive [inhibitor, single point].
In the case of `Cc1ccc(NC2=NC(c3ccc(F)cc3)n3c(nc(C)cc3=O)N2)cc1` (configuration not stated), the “activity change, negative = growth inhibition” value is reported as inactive: 3.99%.
With `O=C(c1ccc(Cl)cc1)N1CCN(c2ccc(F)cc2)CC1` the Potency was inconclusive [inhibitor, single point].
With `COc1cc2[nH]c(=S)nc(NCc3ccc(Cl)cc3)c2cc1OC` the Potency was inconclusive [inhibitor, partial curve].
For `CCc1nc(N2CCOCC2)c(C#N)c2c1COC(C)(C)C2`, the Potency was inconclusive [inhibitor, single point].
For `Cc1noc(/C=C/c2cccs2)c1S(=O)(=O)N1CCC(C(=O)NCCCN2CCC(C)CC2)CC1`, the Potency was inconclusive [inhibitor, single point].
In the case of `CCOC(=O)c1c(NC(=O)c2ccco2)sc(C(=O)N2CCCC2)c1C`, the Potency is reported as inconclusive [inhibitor, partial curve].
In the case of `O=Cc1cccc(Oc2ccc([N+](=O)[O-])cc2[N+](=O)[O-])c1`, the Potency is reported as inconclusive [inhibitor, single point].
In the case of `Cc1ccc(S(=O)(=O)c2nnn3c2nc(Nc2ccc(C(C)C)cc2)c2sccc23)cc1C`, the Potency is reported as active: 4.11 µM.
With `CCCN1CNc2c(c(=O)[nH]c(=S)n2CCc2cc(Cl)ccc2Cl)C1` the Potency was inconclusive [inhibitor, single point].
In the case of `CCOc1ccc(-n2c(SCc3nc(-c4ccccc4C)no3)nnc2-c2ccccc2)cc1`, the “activity change, negative = growth inhibition” value is reported as inactive: -10.3%.
In the case of `COc1cc(OC)cc(C(=O)Nc2nc(CC(=O)NCCc3ccccc3)cs2)c1`, the Potency is reported as inconclusive [inhibitor, single point].
